A compilation of properties of binary mixtures (doi:10.1016/j.jct.2016.12.008)
The densities may have been worked out from excess volumes.

Experiment: xn = mol fraction of the nth substance listed
Details: 100 kPa

CC[n+]1ccn(C)c1.N#C[S-] + O
mass density [kg/m3]
Details	288.15 K	293.15 K	298.15 K	303.15 K	308.15 K	313.15 K	318.15 K
x1 = 0.0006	999.7	–	997.6	–	994.5	–	990.7
x1 = 0.0012	–	–	998.1	–	995	–	991.2
x1 = 0.0018	1000.9	–	998.7	–	–	–	991.6
x1 = 0.0024	1001.5	–	999.2	–	996	–	992.1
x1 = 0.003	1002	–	999.7	–	996.5	–	992.5
x1 = 0.0036	–	–	1000.2	–	997	–	993
x2 = 0	1124	1120.9	1117.8	1114.8	–	1108.7	–
x2 = 0.1006	1122.2	–	–	1113	–	–	–
x2 = 0.1948	1120.3	1117.2	–	–	–	1104.9	–
x2 = 0.3026	1117.7	1114.6	–	1108.4	–	1102.3	–
x2 = 0.4011	1114.6	1111.5	1108.3	–	1102.1	1099	1095.9
x2 = 0.4979	1110.8	1107.6	1104.5	1101.3	1098.2	1095.1	1091.9
x2 = 0.6043	1104.8	1101.6	1098.4	1095.2	–	1088.8	–
x2 = 0.6887	1097.7	1094.4	1091.2	–	–	1081.6	1078.4
x2 = 0.7981	1083.1	–	–	–	–	–	–
x2 = 0.9105	1053.6	–	1048	1045.2	1042.3	–	1036.2
x2 = 0.9443	–	1036.3	1033.8	1031.2	1028.6	1025.8	1023
x2 = 0.9506	1035.3	1033	1030.6	1028.1	1025.5	–	1020
